In all, about 110,000 compounds were measured (“z-score”: median about -0.1, highest 2% from about 2 on). This is one part of the list. Calls of active or inactive are those of the source.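 Rule for the calls: active = z-score in the third read window above 3 or below -3; inactive = the rest.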

The experiment concerns the target Metabotropic glutamate receptor 8 (Rattus norvegicus) (UniProt P70579). As to the kind of experiment: mGluR8 Gi/Go-coupled signaling modulation – cell-based, rat, thallium flux, HTS, primary screen (AID 488969). The conditions noted are these: HEK293 rat mGluR8, GIRK (G protein-gated inwardly rectifying potassium channel) thallium flux, FluoZin2; at 10 µM; stronger effect = higher value; submaximal glutamate (EC20) added with thallium.
UniProt P70579, sequence (P70579 whole entry, looked up): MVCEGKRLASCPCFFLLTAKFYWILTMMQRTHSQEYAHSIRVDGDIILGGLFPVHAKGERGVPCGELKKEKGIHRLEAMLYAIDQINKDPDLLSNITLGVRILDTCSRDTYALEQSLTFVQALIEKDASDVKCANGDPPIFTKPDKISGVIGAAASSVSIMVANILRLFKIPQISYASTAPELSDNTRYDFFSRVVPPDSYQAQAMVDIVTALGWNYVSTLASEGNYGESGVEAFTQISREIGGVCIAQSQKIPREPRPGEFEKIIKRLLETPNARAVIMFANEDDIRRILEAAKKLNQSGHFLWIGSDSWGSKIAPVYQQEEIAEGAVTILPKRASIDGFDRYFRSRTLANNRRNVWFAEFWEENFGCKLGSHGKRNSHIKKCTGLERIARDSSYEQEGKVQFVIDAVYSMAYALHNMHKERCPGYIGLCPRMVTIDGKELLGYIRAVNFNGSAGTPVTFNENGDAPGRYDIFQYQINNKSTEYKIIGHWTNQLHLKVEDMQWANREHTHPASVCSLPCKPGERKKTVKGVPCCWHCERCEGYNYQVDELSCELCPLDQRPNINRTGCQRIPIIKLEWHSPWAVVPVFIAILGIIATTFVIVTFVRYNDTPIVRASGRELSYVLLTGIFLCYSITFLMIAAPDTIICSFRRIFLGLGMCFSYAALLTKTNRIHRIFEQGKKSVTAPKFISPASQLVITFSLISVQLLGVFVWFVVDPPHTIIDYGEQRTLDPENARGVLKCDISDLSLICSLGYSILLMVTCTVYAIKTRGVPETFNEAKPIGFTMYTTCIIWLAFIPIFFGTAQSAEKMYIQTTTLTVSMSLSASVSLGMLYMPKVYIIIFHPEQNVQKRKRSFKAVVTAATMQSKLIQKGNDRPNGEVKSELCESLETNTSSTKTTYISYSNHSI
As to `CC(=O)c1cccc(NC(=O)CN2C(=O)C3C4C=CC(C4)C3C2=O)c1` (stereo unspecified), the z-score came to 0.0311.

For `CC(O)c1c(OCc2ccccc2)ncnc1OCc1ccccc1` (stereo unspecified), the z-score was -0.29.

As for `CCCc1cc(=O)[nH]c(SCC(=O)c2ccc3c(c2)OCCO3)n1`, the z-score was -0.174.

`Cn1c(=O)oc2cc(S(=O)(=O)NCc3ccccc3)ccc21`: the z-score was 0.611.

As for `CCOC(=O)c1oc2cc(O)cc(C)c2c(=O)c1-c1cscn1`, the z-score is 0.0192.

`CCCCC(=O)Nc1ccc(NC(=O)CCCC)nc1` came in with a z-score of 1.64.

Consider `C/C=C/c1ccc(OCCOc2ccc(C=O)cc2)c(OC)c1`, for which the z-score was -0.43.

For `Cc1ccc(CS(=O)(=O)CCC(=O)NCCC(C)C)cc1`, the z-score is -0.189.

Molecule `O=S(=O)(c1ccccc1)c1ccccc1/C=N\O` came in with a z-score of -1.52.

Consider `Cc1cc([N+](=O)[O-])ccc1NC(=O)/C=C/c1cccs1`, for which the z-score was -0.0372.

`CCC(C)Sc1nc(O)c(Cc2ccccc2)c(=O)[nH]1` (stereo unspecified) showed a z-score of 0.789.

`Cc1ccc(-c2cc(C(F)F)nc(NCc3cccnc3)n2)cc1`: the z-score was -0.718.

Regarding `Cc1ccc(-c2nnn(CC(=O)N(CC(=O)NCc3ccccc3)c3cccc(C)c3C)n2)o1`, the z-score was -0.68.

`CCOC(=O)N1CCC(NC(=O)CS(=O)Cc2nc(-c3ccc(OC)c(OC)c3)oc2C)CC1` (stereo unspecified) came in with a z-score of -1.06.

Consider `Nn1c(SCC(=O)Nc2ccc3c(c2)OCO3)nnc1-c1ccc(Cl)cc1`, for which the z-score was -0.179.

Molecule `CCOC(=O)c1ccc(NS(=O)(=O)c2ccc3c(c2)oc(=O)n3C)cc1` had a z-score of 0.684.

Molecule `Cc1ccc(C(=O)NCc2ccco2)cc1Br` showed a z-score of -0.302.

As to `Cn1c(CNC2CCCCC2)c(C#N)c2ccccc21`, the z-score came out at 0.256.

`Cc1cc(OC(=O)C(c2ccccc2)c2ccccc2)c([N+](=O)[O-])c(=O)[nH]1` came in with a z-score of 0.0153.

Take `CCOC(=O)CN(C(=O)CSc1nnc(-c2ccncc2)n1CCCOC)c1ccccc1`: the z-score came out at 1.94.

As to `O=C(OCC(=O)N1CCc2ccccc21)c1cccnc1`, the z-score is -0.0106.

On to `COCCn1c(SCC(=O)c2ccc(CNC(C)=O)o2)nc2ccccc2c1=O`, for which the z-score stood at 0.044.

Molecule `CCOC(=O)N1CCN(C(=O)Cc2ccsc2)CC1` returned a z-score of -0.965.

In the case of `COc1cc(OC)cc(C(=O)NCCOc2ccccc2)c1`, the z-score is 0.162.

Molecule `Cc1ccc(S(=O)(=O)NC(=O)c2cc(C)n(-c3cc(S(=O)(=O)N4CCOCC4)ccc3N3CCCC3)c2C)cc1` displayed a z-score of 0.0127.

The molecule `NC(=O)c1ccc(NC(=O)c2ccc(CN3CCOCC3)cc2)cc1` showed a z-score of -0.165.

In turn, `O=C(Nc1cccc(-c2cn3cccnc3n2)c1)c1cccs1` came in with a z-score of 0.0303.

Regarding `O=c1c2c(nc3cc(-c4cccc(Cl)c4)[nH]n13)CCC2`, the z-score came to 0.391.

For `COc1ccc(OC)c(C(=O)c2ccc(C(=O)Nc3cccc4ccccc34)cc2)c1`, the z-score was 0.682.

For the molecule `CC1CCCCC1NC(=O)CSCC(=O)O` (stereo unspecified), the z-score was -0.0424.

The molecule `Cc1ccc(NC(=O)C(CC(C)C)NC(N)=O)cc1` (stereo unspecified) showed a z-score of -0.23.

For `Cc1ccc(NC(=O)c2sc3nc[nH]c(=O)c3c2C)c(C)c1`, the z-score was -0.214.

Regarding `CCC(CC)n1[nH]c(=O)cc1N`, the z-score was -0.356.

Regarding `Cc1ccc(C)c(NS(=O)(=O)c2cc(C(N)=O)ccc2C)c1`, the z-score was -0.155.

For the molecule `O=C(COC(=O)CCC(=O)c1cccs1)NCc1ccco1`, the z-score turned out to be 0.176.

In turn, `CCOc1ccccc1N1CCN(C(=O)CCCN2C(=O)c3cccc4cccc(c34)C2=O)CC1` had a z-score of -0.743.

The molecule `CCOC(=O)C1CCCCN1Cc1ccc(F)cc1` (stereo unspecified) displayed a z-score of 0.191.

`CCC1CCc2c(sc(N)c2C(N)=O)C1` (stereo unspecified) came in with a z-score of -0.0172.

Regarding `CCOc1ccc(NC(=O)NC23CC4CC(CC(C4)C2)C3)cc1`, the z-score was active: 4.76.

For the molecule `CC1(C)Cc2c(c(-c3ccccc3)nc(N3CCOCC3)c2C(N)=O)CO1`, the z-score was -0.0493.

In turn, `COc1ccccc1-c1nnc2sc(-c3cc4ccccc4o3)nn12` had a z-score of -0.509.

Regarding `CC(C)(C)c1ccccc1NC(=O)c1cccnc1`, the z-score was -0.269.

`Cc1ccc(S(=O)(=O)NC(=O)COc2ccccc2C)cc1` showed a z-score of -0.0338.

Molecule `Cc1c(C(=O)NCc2ccc3c(c2)OCO3)sc2nc(-c3ccccc3)cn12` gave a z-score of -0.308.

Consider `O=C(c1ccc2nc3ccc(Cl)cc3c(=O)n2c1)N1CCOCC1`, for which the z-score was -0.0431.

With `O=C(NCc1ccco1)C1CCN(C(=O)c2cc3sccc3n2Cc2ccc(F)cc2)CC1`, the z-score was -0.504.

`CCCCCCCCn1c(=O)c(C(=O)OCC)c(O)c2ccccc21` came in with a z-score of -0.919.

As for `COC(=O)c1c(NC(=O)COC(=O)c2ccc(O)cc2)sc2c1CCCCC2`, the z-score is -0.28.

In the case of `CC(C)CNC(=S)NC(=O)c1ccc(F)cc1`, the z-score was active: 7.84.

Molecule `Cc1ccc(C(=O)CC2(O)C(=O)N(C)c3ccccc32)o1` (stereo unspecified) gave a z-score of -0.229.

The molecule `COCCN(C(=O)C1CC1)c1nnc(-c2ccc(C)cc2)s1` yielded a z-score of -0.0888.

Turning to `O=C1c2cccc3cccc(c23)C(=O)N1CCN1CCN(CC(O)COc2ccccc2)CC1` (stereo unspecified), the z-score came to 0.169.

`COc1cc(C(C)=O)ccc1COc1ccc(C(=O)OCC(=O)NC2CCS(=O)(=O)C2)cc1OC` (stereo unspecified) displayed a z-score of -0.225.

The molecule `CC(=O)c1ccc(Oc2cc(-c3ccccc3)nc(-c3ccccc3)n2)cc1` returned a z-score of -0.244.

Take `OCCNc1c2ccccc2nc2c(F)c(F)c(F)c(F)c12`: the z-score was found to be 0.45.

`C=C(C)c1cccc(C(C)(C)NC(=O)N2CCN(C/C=C/c3ccccc3)CC2)c1` displayed a z-score of -0.794.

Take `Cn1c(SCCOc2cccc(Cl)c2)nnc1-c1ccncc1`: the z-score was -0.17.

`CC(=O)Oc1ccc2c(c1)c(C(C)=O)c(C)n2C`: the z-score is -0.312.

On to `COc1cc(/C=C2/SC(=S)N(c3ccccc3)C2=O)ccc1Oc1nc(N2CCOCC2)nc(N2CCOCC2)n1`, for which the z-score is -0.0521.

Take `C=CCn1c(-c2ccccc2)ccc(C#N)c1=O`: the z-score is -0.338.

Turning to `COc1ccc(-n2c(SC3CCOC3=O)nc3ccccc32)cc1` (stereo unspecified), the z-score is -2.32.

Molecule `CC(=O)Nc1cccc(OCC(=O)Nc2ccccc2)c1` showed a z-score of 0.915.

As to `CCCSc1nc(NCc2ccco2)c2c3c(sc2n1)COC(C)(CC)C3` (stereo unspecified), the z-score was -0.281.

Consider `COc1cccc(-n2c(Cn3nc(C(F)F)cc3C(F)F)n[nH]c2=S)c1`, for which the z-score is -0.302.

On to `Cn1c(-c2ccc(C=O)s2)nc2c3ccccc3c3ccccc3c21`, for which the z-score is -2.05.

Regarding `CC(C)c1ccc(NC(=O)N(CCc2nc3ccccc3[nH]2)C2CCCC2)cc1`, the z-score is 1.15.

The molecule `Cc1nn(-c2ccccc2)c(C)c1/C=N/NC(=O)c1cccs1` displayed a z-score of -2.

`CCCCCCN1C2=NCCN2c2ccccc21`: the z-score was active: 7.63.

In the case of `CCCN1CCN(CCCNC(=O)Cn2nc(-c3ccc(Cl)cc3)ccc2=O)CC1`, the z-score was -0.145.

With `Cc1ccccc1-c1nc(CN2CCC(C(=O)N3CCC(C(N)=O)CC3)CC2)c(C)o1`, the z-score worked out at 0.315.

Regarding `Cc1cc(C)n(Cc2n[nH]c(=S)n2Cc2ccccc2)n1`, the z-score stood at 0.459.

Source of the values: PubChem BioAssay AID488969 (Vanderbilt High Throughput Screening Facility, 2010).
